From the supplement of paper PMC4604168 (melanoma cell lines)
This is one part of the list. Many values rest on one well or one pass, so single values are uncertain.

The molecules below were run on WM1716 (assay: cell count relative to DMSO control; melanoma cells; higher = more viable cells). Conditions: library dose: low library concentration; 72 h.
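Also: cell number obtained by counting DAPI-stained nuclei in high-throughput microscope images with image analysis software, screen run in 1,536-well plates.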

| SMILES | cell count [%] |
| --- | --- |
| CC(=O)O[C@@]12CO[C@@H]1C[C@H](O)[C@@]1(C)C(=O)[C@H](O)C3=C(C)[C@@H](OC(=O)[C@H](O)[C@@H](NC(=O)OC(C)(C)C)c4ccccc4)C[C@@](O)([C@@H](OC(=O)c4ccccc4)[C@H]21)C3(C)C [Docetaxel] + Nc1cccc2c1CN(C1CCC(=O)NC1=O)C2=O [lenalidomide] (first compound 0.0001 µM, partner dose 1 µM) | 54.2 |
| CC(=O)O[C@@]12CO[C@@H]1C[C@H](O)[C@@]1(C)C(=O)[C@H](O)C3=C(C)[C@@H](OC(=O)[C@H](O)[C@@H](NC(=O)OC(C)(C)C)c4ccccc4)C[C@@](O)([C@@H](OC(=O)c4ccccc4)[C@H]21)C3(C)C [Docetaxel] + O=C(O)c1ccc(-c2c[nH]c3ncc(-c4ccccc4)cc23)cc1C1CCCC1 [GSK650394] (first compound 0.0001 µM, partner dose 0.16 µM) | 33.7 |
| Nc1nc(F)nc2c1ncn2[C@@H]1O[C@H](CO)[C@@H](O)[C@@H]1O [fludarabine] + CC1(C)NC(=O)N(c2ccc([N+](=O)[O-])c(C(F)(F)F)c2)C1=O [nilutamide] (first compound 0.2 µM, partner dose 1 µM) | 102 |
| Nc1nc(F)nc2c1ncn2[C@@H]1O[C@H](CO)[C@@H](O)[C@@H]1O [fludarabine] + c1cc(-c2cnn3cc(-c4ccc(OCCN5CCCCC5)cc4)cnc23)ccn1 [Dorsomorphin] (first compound 0.2 µM, partner dose 0.4 µM) | 106 |
| Nc1nc(F)nc2c1ncn2[C@@H]1O[C@H](CO)[C@@H](O)[C@@H]1O [fludarabine] + CCN(CC)CCCCNc1ncc2cc(-c3cc(OC)cc(OC)c3)c(NC(=O)NC(C)(C)C)nc2n1 [PD173074] (first compound 0.2 µM, partner dose 0.1 µM) | 102 |
| Nc1nc(F)nc2c1ncn2[C@@H]1O[C@H](CO)[C@@H](O)[C@@H]1O [fludarabine] + C=CCNC1=C2C[C@@H](C)C[C@H](OC)[C@H](O)[C@@H](C)/C=C(\C)[C@H](OC(N)=O)[C@@H](OC)/C=C\C=C(/C)C(=O)NC(=CC1=O)C2=O [Tanespimycin] (first compound 0.2 µM, partner dose 0.002 µM) | 95.2 |
| Nc1nc(F)nc2c1ncn2[C@@H]1O[C@H](CO)[C@@H](O)[C@@H]1O [fludarabine] + C=CCn1c(=O)c2cnc(Nc3ccc(N4CCN(C)CC4)cc3)nc2n1-c1cccc(C(C)(C)O)n1 [MK1775] (first compound 0.2 µM, partner dose 0.02 µM) | 86.2 |
| CC(=O)c1c(C)c2cnc(Nc3ccc(N4CCNCC4)cn3)nc2n(C2CCCC2)c1=O [palbociclib] + CN(C)S(=O)(=O)c1ccc2c(c1)/C(=C/c1cc3c([nH]1)CCCC3)C(=O)N2 [SU6656] (first compound 0.04 µM, partner dose 0.4 µM) | 62 |
| CC(=O)c1c(C)c2cnc(Nc3ccc(N4CCNCC4)cn3)nc2n(C2CCCC2)c1=O [palbociclib] + Cn1cncc1[C@@](N)(c1ccc(Cl)cc1)c1ccc2c(c1)c(-c1cccc(Cl)c1)cc(=O)n2C [tipifarnib] (first compound 0.04 µM, partner dose 0.01 µM) | 43.6 |
| Nc1ccn([C@@H]2O[C@H](CO)[C@@H](O)C2(F)F)c(=O)n1 [gemcitabine] + Nc1cccc2c1CN(C1CCC(=O)NC1=O)C2=O [lenalidomide] (first compound 0.0004 µM, partner dose 1 µM) | 85.9 |
| Nc1nc(F)nc2c1ncn2[C@@H]1O[C@H](CO)[C@@H](O)[C@@H]1O [fludarabine] + Clc1ccc(Nc2nnc(Cc3ccncc3)c3ccccc23)cc1 [vatalanib] (first compound 0.2 µM, partner dose 2 µM) | 98.2 |
| Nc1nc(F)nc2c1ncn2[C@@H]1O[C@H](CO)[C@@H](O)[C@@H]1O [fludarabine] + C#Cc1cccc(Nc2ncnc3cc(OCCOC)c(OCCOC)cc23)c1 [erlotinib] (first compound 0.2 µM, partner dose 0.8 µM) | 81.5 |
| Nc1nc(F)nc2c1ncn2[C@@H]1O[C@H](CO)[C@@H](O)[C@@H]1O [fludarabine] + O=C(O)C(=O)Nc1sc2c(c1C(=O)O)CCNC2 [TCS401] (first compound 0.2 µM, partner dose 1.66667 µM) | 107 |
| CC(=O)O[C@@]12CO[C@@H]1C[C@H](O)[C@@]1(C)C(=O)[C@H](O)C3=C(C)[C@@H](OC(=O)[C@H](O)[C@@H](NC(=O)OC(C)(C)C)c4ccccc4)C[C@@](O)([C@@H](OC(=O)c4ccccc4)[C@H]21)C3(C)C [Docetaxel] + O=c1cc(-c2cccc3c2Sc2ccccc2S3)oc(N2CCOCC2)c1 [KU55933] (first compound 0.0001 µM, partner dose 1 µM) | 36.2 |
| Nc1ccn([C@@H]2O[C@H](CO)[C@@H](O)C2(F)F)c(=O)n1 [gemcitabine] + Cc1cc([N+](=O)[O-])ccc1NS(=O)(=O)c1cc(Cl)ccc1Cl [FH535] (first compound 0.0004 µM, partner dose 1 µM) | 80.2 |
| CC(=O)c1c(C)c2cnc(Nc3ccc(N4CCNCC4)cn3)nc2n(C2CCCC2)c1=O [palbociclib] + O=C(O)c1ccc(-c2c[nH]c3ncc(-c4ccccc4)cc23)cc1C1CCCC1 [GSK650394] (first compound 0.04 µM, partner dose 0.16 µM) | 57.6 |
| CO[C@H]1C[C@@H]2CC[C@@H](C)[C@@](O)(O2)C(=O)C(=O)N2CCCC[C@H]2C(=O)O[C@H]([C@H](C)C[C@@H]2CC[C@@H](OCCO)[C@H](OC)C2)CC(=O)[C@H](C)/C=C(\C)[C@@H](O)[C@@H](OC)C(=O)[C@H](C)C[C@H](C)/C=C/C=C/C=C/1C [everolimus] + CCCCCCCCCCCC1=C(O)C(=O)C=C(O)C1=O [Embelin] (first compound 0.02 µM, partner dose 1.2 µM) | 91.6 |
| Nc1ncn([C@H]2C[C@H](O)[C@@H](CO)O2)c(=O)n1 [decitabine] + CC(C)(C)c1cnc(CSc2cnc(NC(=O)C3CCNCC3)s2)o1 [SNS-032] (first compound 0.1 µM, partner dose 0.01 µM) | 78.4 |
| CO[C@H]1C[C@@H]2CC[C@@H](C)[C@@](O)(O2)C(=O)C(=O)N2CCCC[C@H]2C(=O)O[C@H]([C@H](C)C[C@@H]2CC[C@@H](OCCO)[C@H](OC)C2)CC(=O)[C@H](C)/C=C(\C)[C@@H](O)[C@@H](OC)C(=O)[C@H](C)C[C@H](C)/C=C/C=C/C=C/1C [everolimus] + Cn1nnc2c(C(N)=O)ncn2c1=O [temozolomide] (first compound 0.02 µM, partner dose 2 µM) | 77 |
| CO[C@H]1C[C@@H]2CC[C@@H](C)[C@@](O)(O2)C(=O)C(=O)N2CCCC[C@H]2C(=O)O[C@H]([C@H](C)C[C@@H]2CC[C@@H](OCCO)[C@H](OC)C2)CC(=O)[C@H](C)/C=C(\C)[C@@H](O)[C@@H](OC)C(=O)[C@H](C)C[C@H](C)/C=C/C=C/C=C/1C [everolimus] + Cn1cncc1[C@@](N)(c1ccc(Cl)cc1)c1ccc2c(c1)c(-c1cccc(Cl)c1)cc(=O)n2C [tipifarnib] (first compound 0.02 µM, partner dose 0.01 µM) | 75.4 |
| Nc1nc(F)nc2c1ncn2[C@@H]1O[C@H](CO)[C@@H](O)[C@@H]1O [fludarabine] + COCC[n+]1c2c(n(Cc3cnccn3)c1C)C(=O)c1ccccc1C2=O [YM155] (first compound 0.2 µM, partner dose 0.0004 µM) | 94.3 |
| CO[C@H]1C[C@@H]2CC[C@@H](C)[C@@](O)(O2)C(=O)C(=O)N2CCCC[C@H]2C(=O)O[C@H]([C@H](C)C[C@@H]2CC[C@@H](OCCO)[C@H](OC)C2)CC(=O)[C@H](C)/C=C(\C)[C@@H](O)[C@@H](OC)C(=O)[C@H](C)C[C@H](C)/C=C/C=C/C=C/1C [everolimus] + c1cc(-c2cnn3cc(-c4ccc(OCCN5CCCCC5)cc4)cnc23)ccn1 [Dorsomorphin] (first compound 0.02 µM, partner dose 0.4 µM) | 86.6 |
| CC(=O)c1c(C)c2cnc(Nc3ccc(N4CCNCC4)cn3)nc2n(C2CCCC2)c1=O [palbociclib] + Cn1c(Nc2ccc(C(F)(F)F)cc2)nc2cc(Oc3ccnc(-c4ncc(C(F)(F)F)[nH]4)c3)ccc21 [CHIR265] (first compound 0.04 µM, partner dose 0.08 µM) | 58.4 |
| CC(=O)O[C@@]12CO[C@@H]1C[C@H](O)[C@@]1(C)C(=O)[C@H](O)C3=C(C)[C@@H](OC(=O)[C@H](O)[C@@H](NC(=O)OC(C)(C)C)c4ccccc4)C[C@@](O)([C@@H](OC(=O)c4ccccc4)[C@H]21)C3(C)C [Docetaxel] + NCC(=O)Nc1ccc(-n2nc(C(F)(F)F)cc2-c2ccc3c(ccc4ccccc43)c2)cc1 [OSU03012] (first compound 0.0001 µM, partner dose 1 µM) | 41.9 |
| CC(=O)O[C@@]12CO[C@@H]1C[C@H](O)[C@@]1(C)C(=O)[C@H](O)C3=C(C)[C@@H](OC(=O)[C@H](O)[C@@H](NC(=O)OC(C)(C)C)c4ccccc4)C[C@@](O)([C@@H](OC(=O)c4ccccc4)[C@H]21)C3(C)C [Docetaxel] + CC(=O)c1c(C)c2cnc(Nc3ccc(N4CCNCC4)cn3)nc2n(C2CCCC2)c1=O [palbociclib] (first compound 0.0001 µM, partner dose 0.04 µM) | 41.1 |
